Assay results reported in PubChem BioAssay AID540317 (National Center for Advancing Translational Sciences (NCATS), 2011).
In all, about 390,000 compounds went through this assay and about 2,200 (0.56%) were called active. Inconclusive results, whose numbers are uncertain, are shown with a selection of clear calls. The call rests on the fitted dose curve; in most records, active means well fitted inhibition curve with a large enough effect; inconclusive means small, poorly fitted or top-dose-only effect; inactive means no such curve, though single readings can be large or run the other way. Potencies of inconclusive entries are doubtful fits and often do not repeat.

target: Chromobox protein homolog 1 (Homo sapiens) (UniProt P83916); experiment: HTS for Inhibitors of HP1-beta Chromodomain Interactions with Methylated Histone Tails; settings: AlphaScreen HP1-beta / biotin-H3K9me3 peptide binding; series mostly up to 114 µM; activity change, negative = inhibition: at the top concentration; further: nearly all actives have a fitted effect of over 70% in size
Chain of UniProt P83916 (P83916 whole entry, looked up): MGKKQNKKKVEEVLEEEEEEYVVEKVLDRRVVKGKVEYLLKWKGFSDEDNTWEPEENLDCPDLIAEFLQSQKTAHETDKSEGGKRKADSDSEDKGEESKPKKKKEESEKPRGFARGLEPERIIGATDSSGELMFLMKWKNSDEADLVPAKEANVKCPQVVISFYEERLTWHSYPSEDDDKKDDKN
Summary of the method: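 HP1-beta protein (50 nM final) preincubated 30 min at room temperature with biotinylated H3(1-18)K9me3 peptide (50 nM) in PBS pH 7.4, 0.01% Tween-20, then compound added for 30 min. AlphaScreen streptavidin donor/nickel chelate acceptor beads (10 ug/mL final), 30 min dark, luminescence read.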
Potency means the concentration at half of the fitted maximal effect; tags describe the fitted curve by direction and shape.

Row | SMILES | Potency | activity change, negative = inhibition
1 | O=C1CCCC(O)=C1C(C#Cc1ccccc1)C1=C(O)CCCC1=O | inconclusive: 44.7 µM [inhibitor, partial curve] | 
2 | CCN1CCN(C(=O)C2CCN(S(=O)(=O)c3ccc4c(c3)NC(=O)C(C)S4)CC2)CC1 (stereo unspecified) |  | inactive: 22.8%
3 | COc1ccc(-c2oc3ccc(-c4cc(OC)c(OC)c(OC)c4)cc3c2-c2ccc(OC)nc2)cc1 |  | inactive: 31%
4 | N#Cc1nc(Cc2ccccc2)oc1NCc1ccccc1 | inconclusive: 44.7 µM [inhibitor, partial curve] | 
5 | Cc1cc(C)nc(SCC(=O)NN=C2CCCC2)n1 | inconclusive: 7.94 µM [inhibitor, full curve] | 
6 | Oc1ccc(Nc2nc(-c3ccc(O)cc3)cs2)cc1 | inconclusive: 44.7 µM [inhibitor, partial curve, poor fit] | 
7 | CCCc1ccc(-c2c(C)sc(N)c2C#N)cc1 | inconclusive: 39.8 µM [inhibitor, single point] | 
8 | COC(=O)C1=C[C@@H](C(=O)OC)[C@@H]2C3=C(C(=O)[C@]2(C)NC(=O)c2ccccc2)[C@H](C)n2c(=O)n(-c4ccccc4)c(=O)n2[C@@H]3C1 |  | inactive: 35.9%
9 | CCOC(=O)C1=NOC(CNC(=O)c2ccccc2Cl)C1 (stereo unspecified) |  | inactive: 33.1%
10 | Cc1cc(OC(C)C(=O)N2CCN(CCc3ccccn3)CC2)ccc1Cl (stereo unspecified) |  | inactive: 44.8%
11 | CCOC(=O)Cc1cnc(NC(=O)CSc2nc(C(C)C)cc(=O)[nH]2)s1 |  | inactive: 6.5%
12 | CCOc1ccccc1N1CC(c2nc3ccccc3n2CCCOc2ccccc2)CC1=O (stereo unspecified) |  | inactive: 37.1%
13 | CCOC(=O)C1CCN(C(=O)c2nn(-c3ccc(C)cc3)c(=O)c3c2c2ccccc2n3C)CC1 |  | inactive: 21.5%
14 | COc1cc(S(=O)(=O)N(Cc2cccnc2)Cc2ccco2)ccc1-n1cnnn1 |  | inactive: -0.805%
15 | O=C(CSc1nnc(-c2ccncc2)n1CC1CCCO1)NCc1ccccc1 (stereo unspecified) |  | inactive: 12.6%
16 | CCC(CO)Oc1cc(NCc2ccccc2C(F)(F)F)c2ncn(C(C)C)c2c1 (stereo unspecified) | inconclusive: 39.8 µM [inhibitor, partial curve] | 
17 | Cc1ccc(OCc2nc(C#N)c(N3CCN(Cc4ccccc4)CC3)o2)cc1 | inconclusive: 39.8 µM [inhibitor, single point] | 
18 | CC1CCN(CCCCOc2cccc(Br)c2)CC1 | inconclusive: 56.2 µM [inhibitor, single point] | 
19 | O=C(NC(=S)Nc1ccc2c(c1)OCCO2)c1ccccc1 | inconclusive: 22.4 µM [inhibitor, partial curve, poor fit] | 
20 | Clc1ccc(CN2CCN(/N=C/c3ccco3)CC2)cc1 | inconclusive: 44.7 µM [inhibitor, partial curve] | 
21 | O=C(Cc1cccs1)N(CC1CCCO1)C1(C(=O)NC2CCCCC2)CCCCC1 (stereo unspecified) | inconclusive: 89.1 µM [inhibitor, single point] | 
22 | COc1cc(/C=N/NC(=O)c2cccc([N+](=O)[O-])c2)ccc1OC(=O)c1ccco1 | inconclusive: 35.5 µM [inhibitor, single point] | 
23 | COC(=O)c1cc(=O)n(CCc2ccccc2)c(=Nc2ccc(F)cc2)s1 |  | inactive: -8.15%

Row | SMILES | Potency | activity change, negative = inhibition
24 | N#Cc1nc(-c2ccc(OCc3ccccc3Cl)cc2)oc1N1CCCCCC1 | inconclusive: 5.62 µM [inhibitor, partial curve] | 
25 | CCN1C(=O)/C(=C2\SC(=S)N(NC(=O)c3ccccc3O)C2=O)c2ccccc21 | active: 22.4 µM | 
26 | CCN1/C(=C2\C(=O)N(C)C(=S)N2c2ccccc2)C=Cc2ccccc21 | inconclusive: 50.1 µM [inhibitor, partial curve, poor fit] | 
27 | CC(C)Oc1ccc(C(=O)NC2=NCCS2)cc1 | inconclusive: 12.6 µM [inhibitor, full curve] | 
28 | Clc1cccc(Cl)c1CO/N=C/c1c(-c2ccccc2)nc2n1CCS2 | inconclusive: 20 µM [inhibitor, partial curve, poor fit] | 
29 | Cc1ccnc(NC(=S)N2CCN(c3cccc(C(F)(F)F)c3)CC2)c1 |  | inactive: -13.4% [at 57 µM]
30 | O=C1C2C3C=CC(C4CC34)C2C(=O)N1/N=C/c1ccc(-c2ccc(F)cc2[N+](=O)[O-])o1 (stereo unspecified) |  | inactive: -23.8%
31 | Cc1ccc(-c2csc3nc[nH]c(=S)c23)cc1C | inconclusive: 39.8 µM [inhibitor, partial curve] | 
32 | O=C(O)c1ccc(/C=C/c2nc3sc4c(c3c(=O)[nH]2)CCC4)cc1 | inconclusive: 89.1 µM [inhibitor, single point] | 
33 | CCN(CC)c1ccc(NC(=O)COC(=O)CSc2ccc(Br)cc2C)cc1 | active: 15.8 µM | 
34 | O=C(CN1CCN(S(=O)(=O)c2ccc(Cl)cc2)CC1)N1CCCC1 |  | inactive: 40.4%
35 | O=C(CCC1N=C2c3ccccc3N=C(SCC(=O)Nc3ccc(F)cc3)N2C1=O)NCc1ccco1 (stereo unspecified) |  | inactive: 46.4%
36 | N#Cc1c(NC(=O)CSc2nnc(-c3ccncc3)n2CC2CCCO2)sc2c1CCCC2 (stereo unspecified) |  | inactive: 6.67%
37 | COc1ccc(N2CCC(CNC(=O)Nc3ccc(C)c(C)c3)C2)cc1 (stereo unspecified) | inconclusive: 28.2 µM [inhibitor, partial curve] | 
38 | CCN(CC)c1ccc(C2Nc3ccccc3-c3cc(C)nn32)cc1 (stereo unspecified) | inconclusive: 17.8 µM [inhibitor, partial curve, poor fit] | 
39 | CCOCCCNC(=O)/C(C#N)=C/c1ccc(Cl)c([N+](=O)[O-])c1 | inconclusive: 89.1 µM [inhibitor, single point] | 
40 | CCN(Cc1ccncc1)Cc1c(O)ccc2cc(Br)ccc12 | inconclusive: 50.1 µM [inhibitor, partial curve] | 
41 | COc1ccc(OC)c(NC(=O)Cn2cccc2)c1 | inconclusive: 39.8 µM [inhibitor, single point] | 
42 | Nc1ccc(Nc2ccccc2)c(Cl)c1 | inconclusive: 56.2 µM [inhibitor, partial curve] | 
43 | COC(=O)c1c(C)[nH]c(C(=O)C(C)OC(=O)C2CC2)c1C (stereo unspecified) |  | inactive: 41.7%
44 | O=C(NNC(=O)c1ccccc1O)c1ccc(Cl)c(S(=O)(=O)N2CCc3ccccc32)c1 |  | inactive: 10.1%
45 | CCOC(=O)C1=CN(C(=O)OC(C)(C)C)C(CN2C(=O)COCC2=O)C1 (stereo unspecified) | inconclusive: 79.4 µM [inhibitor, partial curve, poor fit] | 
46 | CCCn1nnc(NCc2ccc(OCc3cccs3)c(OC)c2)n1 | inconclusive: 22.4 µM [inhibitor, single point] | 
